Source: PubChem BioAssay AID1347071 (National Center for Advancing Translational Sciences (NCATS), 2019)
The whole screen tested about 410,000 compounds, of which about 260 (0.063%) were called active. Inconclusive results, whose numbers are uncertain, are shown with a selection of clear calls. Calls follow the shape of the dose curve; as a rule, active = well fitted activation curve with a large enough effect; inconclusive = small, poorly fitted or top-dose-only effect; inactive = no such curve, though single readings can be large or run the other way. No potency is given beside an inconclusive call; the fits are too rough.

Test: qHTS for compounds that reverse cellular toxicity of Amyloid beta (A-beta) peptide in yeast: Primary Screen; also: nearly all actives have a fitted effect of over 55% in size
Conditions: yeast expressing A-beta42, growth rescue, OD600, 48 h; growth rescue: at 46.1 µM (top of the series), 0% DMSO, 100% iron-clioquinol control
Method in brief: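 Growth rescue measured by 600 nm absorbance after 48 h yeast culture at 30 C with compound. Values normalized between DMSO and an equimolar ferric chloride plus clioquinol control.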
Potency is read from the fitted curve at half-maximal effect; tags tell the direction and shape of the fitted curve.

Compound	Potency	growth rescue
COc1cc(OC)cc(C2=Cc3ccccc3C(CC(C)=O)N2c2ccc(C#CC3(N)CCCCC3)cc2)c1 (stereo not given)	inconclusive [activator, single point]	–
Nc1ccc2c(O)cc(S(=O)(=O)O)cc2c1	–	inconclusive: 22.6% [activator]
COc1cccc(NC(=S)N2CCC(Cc3ccccc3)CC2)c1	inconclusive [activator, partial curve, poor fit]	–
COc1ccc(C/C(C)=N/NC(=S)Nc2ccccc2)cc1	inconclusive [activator, single point]	–
Cc1c(C(=O)NCc2ccco2)sc(=O)n1Cc1ccc(S(C)(=O)=O)cc1	–	inactive: -11.6%
Cc1cc(C)n(-c2nc(NCC(C)O)c3c4c(sc3n2)COC(C)(C)C4)n1 (stereo not given)	–	inactive: 1.11%
c1ccc2[nH]c(CN3CCOCC3)nc2c1	–	inactive: -9.82%
O=C(COC(=O)c1ccc(O)cc1O)c1ccc(Cl)cc1	inconclusive [activator, single point]	–
O=C1CC(N2CCN(c3ccc(Cl)cc3)CC2)C(=O)N1c1ccccc1 (stereo not given)	inconclusive [activator, full curve]	–
COc1ccc(CCNC(=O)c2c(Nc3ccccc3C)sc(C(=O)c3ccccc3)c2N)cc1OC	inconclusive [activator, partial curve]	–
COCCOC(=O)C1=C(C)NC(=O)NC1c1ccco1 (stereo not given)	–	inactive: 1.08%
CCOC(=O)c1cc2c(=O)n3ccccc3nc2n(CC2CCCO2)c1=NC(=O)c1ccccc1OCC (stereo not given)	–	inactive: -5.04%
CC1CCCCC1NC(=S)NC(=O)c1cccs1 (stereo not given)	active: 10 µM	–
Cn1cccc1Cc1nnc(SCC(=O)Nc2ccc(Cl)cc2)n1-c1ccc(F)cc1	inconclusive [activator, partial curve]	–
O=[N+]([O-])c1cc(F)c2cccnc2c1O	inconclusive [activator, single point]	–
CCc1ccc(OCC(=O)Nc2cc(S(=O)(=O)CC)ccc2O)cc1	inconclusive [activator, single point]	–
Cc1ccc(NC(=O)CC2SC(=O)N(c3ccccc3)C2=O)cc1 (stereo not given)	–	inactive: 15.2%
CCOc1ccc(/C=N/NC(=O)Cc2csc(Nc3cccc(C(F)(F)F)c3)n2)cc1	inconclusive [activator, single point]	–
Fc1ccc(-c2cc(C(F)(F)F)nc(NCC3CCCO3)n2)cc1 (stereo not given)	–	inactive: -21.1%
Cc1cc(NC(=O)COC(=O)[C@@H](NS(=O)(=O)c2ccccc2)C(C)C)no1	–	inactive: 30.2%
Cc1ccccc1CNC(=O)Cn1cnc(S(=O)(=O)N2CCCC2)c1	–	inactive: 3%
Cc1cccc(N2CCN(C(=O)NC(C)c3ccc(F)c(F)c3)CC2)c1C (stereo not given)	inconclusive [activator, partial curve, poor fit]	–
O=[N+]([O-])c1ccc(C2CCCC/C2=N\OCc2cccc(F)c2)c([N+](=O)[O-])c1 (stereo not given)	inconclusive [activator, partial curve, poor fit]	–
CC(=O)N1CC[n+]2c(-c3ccc(Cl)cc3)csc21	inconclusive [activator, single point]	–

Compound	Potency	growth rescue
Cc1cccc(C(=O)NC(C)C2CC3CCC2C3)c1 (stereo not given)	inconclusive [activator, single point]	–
CCc1ccccc1NC(=O)c1cccc(Oc2ccc([N+](=O)[O-])cc2Cl)c1	inconclusive [activator, partial curve, poor fit]	–
Cc1ccc(NCc2cccn2-c2nnc(N3CCC(C(=O)NCCc4ccccc4)CC3)s2)cc1	inconclusive [activator, single point]	–
Cc1cccc(NC(=O)c2ccc([N+](=O)[O-])s2)c1C	inconclusive [activator, partial curve, poor fit]	–
CSc1nc(N2CCOCC2)c2c3c(sc2n1)CCCC3	–	inactive: -13.2%
Fc1ccc(CN2C3=NCCN3c3ccccc32)cc1	inconclusive [activator, single point]	–
Cc1ccc(C(C)C)c(OCCNS(C)(=O)=O)c1	inconclusive [activator, single point]	–
O=C(NCc1ccccc1)NC12CC3CC(CC(C3)C1)C2	inconclusive [activator, full curve, poor fit]	–
CC(=O)Nc1ccc(S(=O)(=O)Nc2ccccc2C(=O)NCc2cccnc2)cc1	–	inactive: 4.46%
CCN1CCN(S(=O)(=O)c2ccc(Cl)c(C(=O)Nc3ccccc3N3CCOCC3)c2)CC1	inconclusive [activator, full curve, poor fit]	–
Cc1ccc(N2CC(C(=O)OCC(=O)Nc3ccc(Cl)cc3)CC2=O)cc1 (stereo not given)	inconclusive [activator, single point]	–
CC(C)(C)c1ccc(C(=O)N2CC(=O)Nc3ccc(F)cc3C2c2ccc(F)cc2)cc1 (stereo not given)	inconclusive [activator, partial curve, poor fit]	–
Cc1cccc(NC(=S)NCc2ccccc2)c1C	inconclusive [activator, partial curve, poor fit]	–
O=S(=O)(Nc1cccnc1)c1ccc(C2CCCCC2)cc1	inconclusive [activator, single point]	–
CCOC(=O)C1CCN(C(=O)c2ccc3c(c2)NC(=O)/C(=C\c2cccc(C)c2)S3)CC1	inconclusive [activator, single point]	–
COc1ccc(NC(=O)COC(=O)CCC2CCCC2)c(OC)c1	inconclusive [activator, single point]	–
Nc1ncnc2c1ncn2C1CCCC1	–	inactive: -9.9%
COc1cc(OC)c2c(C)cc(=O)oc2c1C(CCN1CCN(c2ccccc2)CC1)c1ccc2c(c1)OCO2 (stereo not given)	–	inactive: 0.787%
Cc1cc(-c2ccccc2)nc(N/N=C/c2ccccc2F)n1	inconclusive [activator, partial curve, poor fit]	–
Cc1ccc(C)c(N2CCN(C(=O)c3cccn3-c3nnc(N4CCCCC4)s3)CC2)c1	–	inactive: -19.2%
CC(C)Nc1nc(NCCOc2ccccc2)c2sccc2n1	–	inactive: -10.9%
CCC(Oc1ccc(F)cc1)C(=O)Nc1nc(-c2ccc(F)cc2)ns1 (stereo not given)	–	inactive: -65%
Fc1ccccc1-n1cc(-c2ccccc2)[nH]c1=S	inconclusive [activator, single point]	–
CC(NC(=O)c1cc([N+](=O)[O-])cc([N+](=O)[O-])c1)C1CC2CCC1C2 (stereo not given)	inconclusive [activator, partial curve, poor fit]	–

Compound	Potency	growth rescue
S=C(NCCc1ccccc1)NCc1cccc(Cl)c1	active: 15.8 µM	–
CC(C)c1ccc(/C=C/C(=O)NC(=S)NN2CCOCC2)cc1	inconclusive [activator, partial curve, poor fit]	–
Cc1ccc(CCNC(=O)C2CCN(c3nnc(-n4cccc4CNc4ccc(C)cc4)s3)CC2)cc1	inconclusive [activator, partial curve, poor fit]	–
Cc1ccc(-n2ncc(C(=O)Nc3ccc4c(c3)OCO4)c2C2CCN(C(=O)OC(C)(C)C)CC2)cc1	–	inactive: -11.2%
O=C1Cn2c(nc3ccccc32)N1c1cccc(C(F)(F)F)c1	inconclusive [activator, partial curve, poor fit]	–
O=[N+]([O-])c1cccc(S(=O)(=O)NCC2CCCO2)c1 (stereo not given)	inconclusive [activator, partial curve, poor fit]	–
O=C(NC(=S)Nc1ccc(Br)cc1)C1CCC1	active: 5.62 µM	–
CCOC(=O)c1[nH]c2cc3c(cc2c1NC(=O)CN1CCC2(CC1)OCCO2)OCO3	–	inactive: 17.6%
C=CCNC(=S)N1CCC(C(=O)c2ccc(C)cc2)CC1	inconclusive [activator, single point]	–
Cc1ccc(N(CCC(=O)O)S(=O)(=O)c2cccc(C(F)(F)F)c2)cc1	inconclusive [activator, partial curve, poor fit]	–
O=C(Nc1ccccc1)OC1CC2CC1C1CCCC21 (stereo not given)	inconclusive [activator, single point]	–
COc1ccc(OC)c(S(=O)(=O)N2CCN(c3ccccn3)CC2)c1	inconclusive [activator, partial curve]	–
CC(C)CC(=O)O/N=C1\C(=O)N(c2ccccc2)c2ccccc21	–	inactive: -5.42%
COc1ccccc1NC(=O)CCNS(=O)(=O)c1ccc2c(c1)CCCC(=O)N2	–	inactive: -5.23%
Fc1cccc(/C=N/n2c(C3CCCCC3)n[nH]c2=S)c1	inconclusive [activator, partial curve, poor fit]	–
CCCCCCCCN1C(=O)[C@H](CC(=O)N2CCCCC2)C[C@@]2(C(=O)OC)CCCCC=C12	–	inactive: 11.5%
COc1ccc(-c2cc(C#N)nc(Cl)n2)cc1	–	inactive: 2.89%
O=C(CCc1ccc(S(=O)(=O)N2CCOCC2)cc1)OCc1nc2ccccc2s1	inconclusive [activator, partial curve, poor fit]	–
O=C(NC1CCCCC1)C(c1ccc(C(F)(F)F)cc1)n1c(=O)c(-c2cc3ccccc3[nH]2)nc2ccccc21 (stereo not given)	inconclusive [activator, single point]	–
CCOC(=O)c1c(NC(=O)Cc2ccccc2)sc2c1CCN(C)C2	–	inactive: -4.52%
N#Cc1c(NC(=O)CSc2nc(-c3ccco3)cc(C(F)(F)F)n2)sc2c1CCCC2	inconclusive [activator, partial curve]	–
Cc1ccc(OCC(=O)OCc2cc(=O)n3nc(-c4cccs4)sc3n2)cc1	–	inactive: -14.2%
